Results reported in the supplement of paper PMC6609913.
Structures can show the parent of a compound that is named as a salt. ± gives the standard deviation of the averaged measurements. Over roughly 1,300 compounds, “normalised cell viability” has its median near 1; the lowest 2% begin near 0.14. This is one part of the list.

Tested on: V-C8 (BRCA2-deficient hamster cells)
Assay: normalised cell viability (fraction of plate median); higher = more viable cells (less toxic)
Conditions: 5 µM
Procedure, shortened: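 In two screens, library drugs at 5 μM were given for 3 days (screen 1) or 6 days (screen 2) to hamster V-C8 cells without BRCA2 and V-C8 cells with BRCA2 restored, seeded 24 h earlier in 96-well plates. A resazurin assay gave the cell viability readout, expressed as modified robust per cent of sample against the plate median, with triplicate wells averaged.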

C[C@H]1[C@H](NC(=O)/C(=N\OC(C)(C)C(=O)O)c2csc(N)n2)C(=O)N1S(=O)(=O)O [Aztreonam]
normalised cell viability (treatment time: 3 days): 0.984 ± 0.057
normalised cell viability (treatment time: 6 days): 1.02 ± 0.012

Cc1c(Cl)cccc1Nc1ncccc1C(=O)O [Clonixin Lysinate]
normalised cell viability (treatment time: 3 days): 1.03 ± 0.052
normalised cell viability (treatment time: 6 days): 0.997 ± 0.057

Cc1ccc(/C(=C\CN2CCCC2)c2ccccn2)cc1 [Triprolidine hydrochloride]
normalised cell viability (treatment time: 3 days): 1.14 ± 0.029
normalised cell viability (treatment time: 6 days): 1.07 ± 0.044

CC(C)(O/N=C(\C(=O)N[C@@H]1C(=O)N2C(C(=O)[O-])=C(C[n+]3ccccc3)CS[C@H]12)c1csc(N)n1)C(=O)O [Ceftazidime pentahydrate]
normalised cell viability (treatment time: 3 days): 0.989 ± 0.013
normalised cell viability (treatment time: 6 days): 1.05 ± 0.023

O=C1C=CC(=O)c2c1ccc1c2ccc2ccccc21 [Chrysene-1,4-quinone]
normalised cell viability (treatment time: 3 days): 1.02 ± 0.061
normalised cell viability (treatment time: 6 days): 1.06 ± 0.12

CN1CCN(C(c2ccccc2)c2ccc(Cl)cc2)CC1 (stereo not given) [Chlorcyclizine hydrochloride]
normalised cell viability (treatment time: 3 days): 0.947 ± 0.019
normalised cell viability (treatment time: 6 days): 0.979 ± 0.073

O=C(N/N=C/c1ccc([N+](=O)[O-])o1)c1ccc(O)cc1 [Nifuroxazide]
normalised cell viability (treatment time: 3 days): 0.41 ± 0.027
normalised cell viability (treatment time: 6 days): 0.451 ± 0.024

CN(N=O)C(=O)N[C@@H](C=O)[C@@H](O)[C@H](O)[C@H](O)CO [Streptozotocin]
normalised cell viability (treatment time: 3 days): 1.1 ± 0.021
normalised cell viability (treatment time: 6 days): 1.09 ± 0.042

CCC(=O)[C@@]1(C)[C@H](C)C[C@H]2[C@@H]3CCC4=CC(=O)C=C[C@]4(C)[C@H]3[C@@H](O)C[C@@]21C [Rimexolone]
normalised cell viability (treatment time: 3 days): 1.06 ± 0.05
normalised cell viability (treatment time: 6 days): 0.935 ± 0.069

CC(=O)Nc1c(I)c(NC(C)=O)c(I)c(C(=O)O)c1I [Diatrizoic acid dihydrate]
normalised cell viability (treatment time: 3 days): 1.03 ± 0.029
normalised cell viability (treatment time: 6 days): 0.989 ± 0.061

CCc1cc(C(N)=S)ccn1 [Ethionamide]
normalised cell viability (treatment time: 3 days): 1.09 ± 0.029
normalised cell viability (treatment time: 6 days): 1.03 ± 0.03

CC(C)N1CCN(c2ccc(OCC3COC(Cn4cncn4)(c4ccc(Cl)cc4Cl)O3)cc2)CC1 (stereo not given) [Terconazole]
normalised cell viability (treatment time: 3 days): 1.09 ± 0.049
normalised cell viability (treatment time: 6 days): 1.08 ± 0.056

CN1C2CCCC1CC(NC(=O)c1nn(C)c3ccccc13)C2 (stereo not given) [Granisetron]
normalised cell viability (treatment time: 3 days): 0.973 ± 0.092
normalised cell viability (treatment time: 6 days): 1.03 ± 0.051

Cc1ncc([N+](=O)[O-])n1CCO [Metronidazole]
normalised cell viability (treatment time: 3 days): 0.914 ± 0.088
normalised cell viability (treatment time: 6 days): 1.04 ± 0.058

CCN(CC)CC#CCOC(=O)C(O)(c1ccccc1)C1CCCCC1 (stereo not given) [Oxybutynin chloride]
normalised cell viability (treatment time: 3 days): 1.02 ± 0.018
normalised cell viability (treatment time: 6 days): 1.03 ± 0.059

OC(CCN1CCCCC1)(c1ccccc1)C1CC2C=CC1C2 (stereo not given) [Biperiden hydrochloride]
normalised cell viability (treatment time: 3 days): 1.02 ± 0.029
normalised cell viability (treatment time: 6 days): 0.999 ± 0.014

O=C(NCCNCC(O)COc1ccc(O)cc1)N1CCOCC1 (stereo not given) [Xamoterol hemifumarate]
normalised cell viability (treatment time: 3 days): 1.03 ± 0.056
normalised cell viability (treatment time: 6 days): 0.991 ± 0.037

CN(C)CCOC1=Cc2ccccc2Sc2ccc(Cl)cc21 [Zotepine]
normalised cell viability (treatment time: 3 days): 0.449 ± 0.066
normalised cell viability (treatment time: 6 days): 0.616 ± 0.076

CCN(Cc1ccncc1)C(=O)C(CO)c1ccccc1 (stereo not given) [Tropicamide]
normalised cell viability (treatment time: 3 days): 1 ± 0.028
normalised cell viability (treatment time: 6 days): 0.995 ± 0.087

COc1ccc(C(=O)NCc2cccnc2)cc1C(=O)NCc1cccnc1 [Picotamide monohydrate]
normalised cell viability (treatment time: 3 days): 1.09 ± 0.07
normalised cell viability (treatment time: 6 days): 1.04 ± 0.054

NC[C@H]1O[C@H](O[C@H]2[C@H](O[C@@H]3O[C@H](CO)[C@@H](O)[C@H]3O)[C@@H](O)[C@H](N)C[C@@H]2N)[C@H](N)[C@@H](O)[C@@H]1O [Ribostamycin sulfate salt]
normalised cell viability (treatment time: 3 days): 1.08 ± 0.018
normalised cell viability (treatment time: 6 days): 0.981 ± 0.069

Cc1ccc(C(=O)c2cc(O)c(O)c([N+](=O)[O-])c2)cc1 [Tolcapone]
normalised cell viability (treatment time: 3 days): 0.967 ± 0.036
normalised cell viability (treatment time: 6 days): 1.08 ± 0.036

COc1ccc2[nH]cc(CCNC(C)=O)c2c1 [Melatonin]
normalised cell viability (treatment time: 3 days): 1.16 ± 0.068
normalised cell viability (treatment time: 6 days): 1 ± 0.058

COc1nc(C)nc(Cl)c1NC1=NCCN1 [Moxonidine]
normalised cell viability (treatment time: 3 days): 1.02 ± 0.027
normalised cell viability (treatment time: 6 days): 0.852 ± 0.089

COc1cc2nc(N3CCN(C(=O)c4ccco4)CC3)nc(N)c2cc1OC [Prazosin hydrochloride]
normalised cell viability (treatment time: 3 days): 1.05 ± 0.048
normalised cell viability (treatment time: 6 days): 1.01 ± 0.026

CCn1cc(C(=O)O)c(=O)c2cnc(N3CCNCC3)nc21 [Pipemidic acid]
normalised cell viability (treatment time: 3 days): 1.09 ± 0.041
normalised cell viability (treatment time: 6 days): 1.04 ± 0.047

Cc1ccc(S(=O)(=O)NC(=O)NN2CC3CCCC3C2)cc1 (stereo not given) [Gliclazide]
normalised cell viability (treatment time: 3 days): 1.04 ± 0.049
normalised cell viability (treatment time: 6 days): 0.979 ± 0.091

CC(=O)N[C@@H](CC(=O)N[C@@H](CCC(=O)O)C(=O)O)C(=O)O [Spaglumic acid]
normalised cell viability (treatment time: 3 days): 1.08 ± 0.02
normalised cell viability (treatment time: 6 days): 1.01 ± 0.044

COc1ccc2cc(CCC(C)=O)ccc2c1 [Nabumetone]
normalised cell viability (treatment time: 3 days): 1.04 ± 0.042
normalised cell viability (treatment time: 6 days): 0.995 ± 0.013

CCn1cc(C(=O)O)c(=O)c2ccc(C)nc21 [Nalidixic acid sodium salt]
normalised cell viability (treatment time: 3 days): 1.06 ± 0.018
normalised cell viability (treatment time: 6 days): 1.02 ± 0.025

C#CCN(C)Cc1ccccc1 [Pargyline hydrochloride]
normalised cell viability (treatment time: 3 days): 0.974 ± 0.053
normalised cell viability (treatment time: 6 days): 1.02 ± 0.052

CCN(CC)CCNC(=O)c1cc(S(C)(=O)=O)ccc1OC [Tiapride hydrochloride]
normalised cell viability (treatment time: 3 days): 1.02 ± 0.063
normalised cell viability (treatment time: 6 days): 0.933 ± 0.035

O=C(CCCN1CC=C(n2c(=O)[nH]c3ccccc32)CC1)c1ccc(F)cc1 [Droperidol]
normalised cell viability (treatment time: 3 days): 1.06 ± 0.023
normalised cell viability (treatment time: 6 days): 1.06 ± 0.018

Cn1nnnc1SCC1=C(C(=O)O)N2C(=O)[C@@H](NC(=O)[C@H](O)c3ccccc3)[C@H]2SC1 [Cefamandole sodium salt]
normalised cell viability (treatment time: 3 days): 1.16 ± 0.13
normalised cell viability (treatment time: 6 days): 1 ± 0.015

CCC[C@H](N[C@@H](C)C(=O)N1[C@H](C(=O)O)C[C@@H]2CCCC[C@@H]21)C(=O)OCC [Perindopril]
normalised cell viability (treatment time: 3 days): 1.16 ± 0.21
normalised cell viability (treatment time: 6 days): 1.07 ± 0.06

Nc1ccc(C(=O)NCC(=O)O)cc1 [Aminohippuric acid]
normalised cell viability (treatment time: 3 days): 1.11 ± 0.039
normalised cell viability (treatment time: 6 days): 1.05 ± 0.03

COc1ccc(NS(=O)(=O)c2ccc(N)cc2)nn1 [Sulfamethoxypyridazine]
normalised cell viability (treatment time: 3 days): 0.927 ± 0.06
normalised cell viability (treatment time: 6 days): 0.952 ± 0.092

CC1(C)OC(=O)NC1=O [Dimethadione]
normalised cell viability (treatment time: 3 days): 1.039 ± 0.0092
normalised cell viability (treatment time: 6 days): 0.843 ± 0.14

N=C(N)NCC1COC2(CCCCC2)O1 (stereo not given) [Guanadrel sulfate]
normalised cell viability (treatment time: 3 days): 1.09 ± 0.023
normalised cell viability (treatment time: 6 days): 1.09 ± 0.065

Nc1ccc(S(=O)(=O)c2ccc(N)cc2)cc1 [Dapsone]
normalised cell viability (treatment time: 3 days): 1.12 ± 0.051
normalised cell viability (treatment time: 6 days): 1.12 ± 0.042

OC[C@H]1O[C@@H](Oc2ccc(O)cc2)[C@H](O)[C@@H](O)[C@@H]1O [Arbutin]
normalised cell viability (treatment time: 3 days): 1.05 ± 0.026
normalised cell viability (treatment time: 6 days): 1.03 ± 0.058

OCCN1CCN(CCCN2c3ccccc3Sc3ccc(Cl)cc32)CC1 [Perphenazine]
normalised cell viability (treatment time: 3 days): 0.641 ± 0.087
normalised cell viability (treatment time: 6 days): 0.74 ± 0.089

CN(C)CCc1c[nH]c2ccc(Cn3cncn3)cc12 [Rizatriptan benzoate]
normalised cell viability (treatment time: 3 days): 1.01 ± 0.052
normalised cell viability (treatment time: 6 days): 1.097 ± 0.0081

C=C1C[C@H]2[C@@H]3C=C(C)C4=CC(=O)CC[C@]4(C)[C@H]3CC[C@]2(C)[C@@]1(OC(C)=O)C(C)=O [Melengestrol acetate]
normalised cell viability (treatment time: 3 days): 0.9761 ± 0.0077
normalised cell viability (treatment time: 6 days): 0.964 ± 0.092

CC(=O)Oc1cccc2c1C(=O)c1c(OC(C)=O)cc(C(=O)O)cc1C2=O [Diacerein]
normalised cell viability (treatment time: 3 days): 0.698 ± 0.022
normalised cell viability (treatment time: 6 days): 0.785 ± 0.036
